Laboratory results: publication PMC6919601, “Identification of Plasmodium dipeptidyl aminopeptidase allosteric inhibitors by high throughput screening” (PLoS ONE, 2019)
Values joined by “and” are separate entries in the source; they are usually repeats but may differ in a detail not shown here. Equal values may be shown once. Hit rate of the full screen: of about 110,000 compounds, about 230 (0.21%) showed an effect of 50% or more. This is one part of the list.

Molecular target: DPAP1 (Plasmodium falciparum, UniProt Q8IIJ9)
Assay: primary screen, percent inhibition; read by cleavage of a fluorogenic dipeptide substrate; higher = more effect of the substance
Set-up: species or system P. falciparum D10 trophozoite lysates; single well
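Note: 30 min substrate incubation versus DMSO and 10 µM JCP410 controls.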

DPAP1, sequence (Q8IIJ9 whole entry, looked up): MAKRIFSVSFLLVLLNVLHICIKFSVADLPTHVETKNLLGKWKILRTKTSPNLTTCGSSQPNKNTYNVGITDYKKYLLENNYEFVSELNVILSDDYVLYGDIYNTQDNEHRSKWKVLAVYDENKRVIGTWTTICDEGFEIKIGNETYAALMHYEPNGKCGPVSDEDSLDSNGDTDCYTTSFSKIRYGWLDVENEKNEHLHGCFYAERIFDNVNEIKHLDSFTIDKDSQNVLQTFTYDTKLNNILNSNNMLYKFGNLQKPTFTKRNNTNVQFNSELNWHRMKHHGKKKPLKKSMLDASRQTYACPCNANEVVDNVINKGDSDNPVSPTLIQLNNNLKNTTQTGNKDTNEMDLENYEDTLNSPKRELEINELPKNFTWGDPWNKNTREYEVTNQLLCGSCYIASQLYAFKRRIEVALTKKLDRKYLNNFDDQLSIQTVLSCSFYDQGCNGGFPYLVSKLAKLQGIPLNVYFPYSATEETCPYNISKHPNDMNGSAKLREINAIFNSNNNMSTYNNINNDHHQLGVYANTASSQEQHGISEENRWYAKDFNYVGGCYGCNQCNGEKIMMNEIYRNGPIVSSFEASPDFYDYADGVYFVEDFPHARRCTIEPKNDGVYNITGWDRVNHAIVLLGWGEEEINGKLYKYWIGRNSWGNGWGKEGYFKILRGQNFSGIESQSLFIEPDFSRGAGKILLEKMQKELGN

| SMILES | % Inhibition @ 10 uM |
| --- | --- |
| COC(=O)C1=C(C)NC(=O)N(C(C)=O)C1c1ccc(Cl)cc1 (stereo not drawn) | 2.57% |
| Cc1nnc(C)n1/N=C/c1ccccc1C(F)(F)F | -0.339% |
| COc1ccccc1C(=O)N1CCN(c2ccc(Cl)cc2)CC1 | -0.425% |
| CCOC(=O)c1c(C)oc2cc(S(=O)(=O)O)c(O)cc12 | -1.25% |
| Cc1ccc(/S(CC2CC2(Cl)Cl)=N\S(=O)(=O)c2ccc(C)cc2)cc1 (stereo not drawn) | 3.27% |
| COc1cccc(-c2cc(C(=O)N3CCCCC3C)no2)c1 (stereo not drawn) | -0.601% |
| COc1cccc(CNC2CCSC2)c1OC (stereo not drawn) | 1.88% |
| CCOc1ccc(/N=C2/S/C(=C\c3ccc4c(c3)OCO4)C(=O)N2CC)cc1 | -6.44% |
| Cc1cc(C)nc(SCCC(=O)Nc2cccc3ccccc23)n1 | -8.14% |
| COc1ccc(-c2noc(COc3cccc(C)c3C)n2)cc1 | -3.71% |
| O=C(NC1CCCCCC1)C1CCCN(S(=O)(=O)N2CCC3(CC2)OCCO3)C1 (stereo not drawn) | 0.335% |
| CN1CCCN(Cc2cccc([N+](=O)[O-])c2)CC1 | -0.294% |
| CCN(Cc1ccccc1)S(=O)(=O)c1cc(C(=O)OC)n(C)c1 | -4.68% |
| CCOC(=O)C1=CN(Cc2ccc(Cl)cc2)C=C(C(=O)OCC)C1c1cccs1 | 0.219% |
| CC1CCCCN1S(=O)(=O)c1ccc(C(=O)Nc2ccc3ccccc3c2)cc1 (stereo not drawn) | -2.8% |
| COc1ccccc1CC(C)N(C)CCc1ccccc1 (stereo not drawn) | -5.11% |
| COc1cc2cc(C(=O)N[C@@H](CC(C)C)C(=O)NCC#N)[nH]c2cc1OC | -5.2% |
| CN(C)CCN(C)Cc1cccc(O)c1 | -6.12% |
| CN(C)CCNc1oc(/C=C/c2ccc(F)cc2)nc1C#N | -2.57% |
| Cc1nc2nc(NCc3ccc(OCc4ccccc4)cc3)nn2c(O)c1Cl | -2.4% |
| O=C(CCN1C(=O)c2ccccc2C1=O)N1CCN(CCO)CC1 | 4.11% |
| COC(=O)c1ccc2c(c1)C(=O)/C(=C/c1ccc(O)cc1)O2 | 3.45% |
| O=C(NCCc1ccc(Cl)cc1)c1cc(O)nc2ccc(S(=O)(=O)N3CCCCCC3)cc12 | 9.13% |
| CCOc1ccc(C(=O)Nc2cc(C(=O)O)cc(C(=O)O)c2)cc1 | -3.05% |
| C/C(=N\OCc1nc2c3c4c(sc3ncn2n1)CCCC4)c1cccs1 | 10.8% |
| COc1ccc(C(=O)/C=C/c2cc3ccccc3o2)c(OCc2ccccc2)c1 | -9.83% |

| SMILES | % Inhibition @ 10 uM |
| --- | --- |
| O=C(CN1C(=O)S/C(=C/c2cccs2)C1=O)N1CCCC1 | -2.09% |
| CCOc1cc(C)c(/C=C2/NC(=O)N(Cc3ccccc3F)C2=O)cc1C(C)C | -1.81% |
| O=C(NCc1ccc2c(c1)OCO2)c1csc2c1CCCC2 | -3.21% |
| CCN(CC)Cc1csc2ccc(Cl)cc12 | -12.2% |
| CCOc1ccc(-c2csc(/C(C#N)=C/c3ccco3)n2)cc1 | 1.08% |
| COc1ccc(C2c3c(-c4ccccc4O)n[nH]c3C(=O)N2Cc2ccncc2)cc1OC (stereo not drawn) | -3.49% |
| CCC1CCc2c(sc(NC(=O)Cc3ccc(Br)cc3)c2C(N)=O)C1 (stereo not drawn) | -7.84% |
| Cc1nc(-n2cc(F)c(=O)[nH]c2=O)c2nc(C)oc2n1 | -1.32% |
| COc1ccc(-c2nc(CNS(=O)(=O)c3ccccc3F)cs2)cc1 | 4.14% |
| CCN1CCN(C(=O)c2ccc(CNS(=O)(=O)c3cccc(OC)c3)cc2)CC1 | -3.37% |
| Cc1nc([N+](=O)[O-])c(N2CCOCC2)n1Cc1ccccc1 | 1.44% |
| Cc1ccc([N+](=O)[O-])cc1NC(=O)c1ccc(-c2ccccc2)cc1 | -4.08% |
| CC(C)(C)OC(=O)NC(CC/N=C/C1=C(O)OC(C)(C)OC1=O)C(=O)O (stereo not drawn) | 0.343% |
| COc1ccc(Cc2nc3ccccc3n2C)cc1 | -2.28% |
| O=C(O)C1CC=CCC1C(=O)Nc1ccc(N2CCN(CCO)CC2)cc1 (stereo not drawn) | -1.61% |
| CCN1CCN(CCNC(=O)c2oc3c(c2C)-c2nn(Cc4cccc(Cl)c4)cc2CC3)CC1 | -7.67% |
| Cc1ccc(-n2ncc(C(=O)NCCCN3CCc4ccccc4C3)c2C2CCNCC2)cc1C | -5.36% |
| CCOc1ccc(C(O)Cc2nc3ccccc3n2C)cc1 (stereo not drawn) | 7.1% |
| Oc1ccc(CN(CCc2ccccc2)Cc2ccccc2)cc1 | -4.04% |
| CC1CN(C)C(C)/C(=C\c2ccco2)C1=O (stereo not drawn) | 3.32% |
| c1ccc2c(c1)CCN(CCCNc1nc3ccccc3n3cnnc13)C2 | -4.21% |
| COc1cc2nc(NCc3cccnc3)n3nc(-c4ccccc4)nc3c2cc1OC | -0.692% |
| CC(C)(C)c1cc(C(=O)Nc2cccc(C(=O)O)c2)cc(C(C)(C)C)c1 | 10.2% |
| CC(C)(C)/N=C(\NS(=O)(=O)c1ccc(Cl)cc1)c1ccc(Br)cc1 | -2.59% |
| O=C(Cc1ccc(F)cc1)NCCSc1c[nH]c2ccccc12 | 2.64% |
| Cc1cccc(NC(=O)COc2ccccc2)c1C | 9.94% |

| SMILES | % Inhibition @ 10 uM |
| --- | --- |
| CS(=O)(=O)N(CC(=O)Nc1ccc2c(c1)OCCO2)Cc1ccccc1 | -6.86% |
| CCc1nonc1NC(=O)c1oc2cc(Br)ccc2c1C | -1.71% |
| CC1=C(C(=O)Nc2cccc(C)n2)C(c2cccs2)C2=C(O)CC(C)(C)CC2=N1 (stereo not drawn) | -2.53% |
| C=CCn1c(SCCC)nc2ccccc2c1=O | -4.6% |
| CCCCN(Cc1ccccc1)Cc1ccc(C)o1 | 1.62% |
| CCN(CC)CCCCOc1ccc(C)cc1 | 1.13% |
| CC1=C(C(=O)Nc2ccccc2C)C(c2ccncc2)n2ncnc2N1 (stereo not drawn) | -4.41% and -1.61% |
| Cc1cccc(C(=O)Nc2cccc(Cl)c2)c1 | -1.38% |
| Nc1ccc2c(c1)S(=O)(=O)c1cc(N)ccc1-2 | -0.216% |
| C=CCOC(=O)c1sc(N2C(=O)c3oc4ccccc4c(=O)c3C2c2ccc(C)cc2)nc1C (stereo not drawn) | -2.92% |
| CCN(CCCNc1ncnc2onc(C)c12)Cc1ccccc1 | -1.42% |
| Cc1ccc(N2C(=O)CC(NC3CCCC(C)C3C)C2=O)cc1 (stereo not drawn) | 5.39% |
| COc1ccc(/C=C(/NC(=O)c2cccc(Br)c2)C(=O)O)cc1 | 7.03% |
| CCOC(=O)N1CCN(C(=O)C2CCN(S(C)(=O)=O)CC2)CC1 | -2.99% |
| CC(CNc1nn2nnnc2c2ccccc12)c1ccccc1 (stereo not drawn) | -1.16% |
| O=C(Nc1nnc(Cc2c[nH]c3ccccc23)s1)c1ccc(Cl)cc1Cl | 16.3% |
| NC(=O)Cn1cnc2c(oc3ccccc32)c1=O | -2.67% |
| O=C(CCN1CCCCC1)C12CC3CC(CC(C3)C1)C2 | 4.15% |
| Cc1cccc(CCNS(=O)(=O)c2cc(Br)cnc2N)c1 | 3.92% |
| Clc1ccc(-c2noc3ncnc(N4CCN(c5ccccn5)CC4)c23)cc1 | 12.6% |
| O=C(CCCC(=O)Nc1ccc(F)c(F)c1)Nc1ccc(F)c(F)c1 | -0.105% |
| CCOC(=O)C1CCCCN1Cc1ccc(SC)cc1 (stereo not drawn) | -3.72% |
| Cc1ccc(C(=N)NOC(=O)c2ccccc2)cc1 | -1.26% |
| CCCOc1ccc(C2C(C(=O)OC)=CN(C)C=C2C(=O)OC)cc1 | 3.45% |
| COc1cc(SC#N)ccc1/N=C/c1c(C)nn(-c2ccc(Cl)cc2)c1O | -2.8% |
| Cc1c(CNCCCOC(C)C)c(C(=O)O)c(C)n1Cc1ccccc1F | -1.92% |

| SMILES | % Inhibition @ 10 uM |
| --- | --- |
| CCCCNC(=O)C1c2ccccc2C(=O)N(C)C1c1cccs1 (stereo not drawn) | -0.972% |
| Cc1ccc2nc(NC(=O)C3CCCCC3C(=O)O)sc2c1 (stereo not drawn) | -3.04% |
| Cc1cccc(/C(C#N)=C/c2ccc(N(C)C)cc2)c1 | 0.385% |
| COc1ccc(C(=O)CSc2ccc3nnc(CCNS(=O)(=O)c4ccc(C)cc4)n3n2)cc1 | 5.6% |
| COc1ccc(C(=O)Nc2ccc(Cl)cc2C)c(OC)c1 | 0.843% |
| Cc1ccc2c(c1)c1c3n2CCN(C(N)=O)C3CCC1 (stereo not drawn) | -0.351% |
| CN(C)CCCNC1CCCCC1C1=CCCCC1 (stereo not drawn) | 4.7% |
| CCOC(=O)N1CCN(C(=S)NC2CCCCC2)CC1 | 2.17% |
| O=C1c2ccccc2CS(=O)(=O)c2ccccc21 | -4.54% |
| COc1cccc(Cn2c(C)c(CNC(C)CCc3ccccc3)c(C(=O)O)c2C)c1 (stereo not drawn) | 16.3% |
| Cc1ccccc1S(=O)(=O)Cc1ccc(C(=O)NCCCN(C)C2CCCCC2)o1 | -1.28% |
| Cc1nc2cc(S(=O)(=O)N3CCC(C(=O)NC4CCCCC4C)CC3)ccc2n1C1CCCC1 (stereo not drawn) | 4.79% |
| Cc1cccnc1-c1ccc(C(=O)NC(Cc2c(F)cccc2F)C(=O)NCC#N)cc1 (stereo not drawn) | -6.56% |
| O=C(Cn1ccn(Cc2ccccc2)c(=O)c1=O)c1ccc(F)cc1 | -4.42% |
| CC1CCN(c2ccc3nnc(CCC(=O)NC(C)CCc4ccco4)n3n2)CC1 (stereo not drawn) | -5.23% |
| CCN(CC)c1nc(SC)nc(Cl)c1Cc1ccc(OC)cc1 | -3.75% |
| COc1ccccc1C(=O)Nc1cc(C)ccn1 | -8.83% |
| Cc1ccc(/C=C2\CCC/C(=C\c3ccc(C)o3)C2=O)o1 | 0.287% |
| CC1CCCCN1CCCNC(=O)c1nc(-c2ccc(Cl)cc2)n2c1CCCCC2 (stereo not drawn) | 1.19% |
| CCOC(=O)c1[nH]c2ccccc2c1NC(=O)Cc1cccs1 | -2.74% |
| CCC[C@H](NC(=O)C1(NC(=O)c2ccc(OC(F)(F)F)cc2)CCCCC1)C(=O)c1nnc(COC)o1 | -3.04% |
| O=C(CCn1cccn1)NCc1cccs1 | -0.656% |
| N#CCNC(=O)[C@@H](Cc1ccc(C(=O)c2ccccc2)cc1)NC(=O)OCc1ccccc1 | 0.079% |
| COc1ccc(C2C(C#N)=C(N)OC3=C2C(=O)CCC3)c(OC)c1 (stereo not drawn) | -5.79% |
